This is one part of the list. Many values rest on one well or one pass, so single values are uncertain.
Test system: WM3526
Assay: cell count relative to DMSO control; melanoma cells; higher = more viable cells
Settings: library dose: low library concentration; 72 h
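Note: cell number obtained by counting DAPI-stained nuclei in high-throughput microscope images with image analysis software, screen run in 1,536-well plates.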

Compound | cell count
C=CCNC1=C2C[C@@H](C)C[C@H](OC)[C@H](O)[C@@H](C)/C=C(\C)[C@H](OC(N)=O)[C@@H](OC)/C=C\C=C(/C)C(=O)NC(=CC1=O)C2=O [Tanespimycin] + CC(C)CCN1c2nc(Nc3cc(F)c(O)c(F)c3)ncc2N(C)C(=O)C1C [BID1870] (first compound 0.002 µM, partner dose 0.2 µM) | 82.6%
CS(=O)(=O)CCNCc1ccc(-c2ccc3ncnc(Nc4ccc(OCc5cccc(F)c5)c(Cl)c4)c3c2)o1 [lapatinib] + Nc1nc(F)nc2c1ncn2[C@@H]1O[C@H](CO)[C@@H](O)[C@@H]1O [fludarabine] (first compound 0.8 µM, partner dose 0.2 µM) | 39.5%
CNC(=O)c1cc(Oc2ccc(NC(=O)Nc3ccc(Cl)c(C(F)(F)F)c3)cc2)ccn1 [sorafenib] + C#Cc1cccc(Nc2ncnc3cc(OCCOC)c(OCCOC)cc23)c1 [erlotinib] (first compound 0.4 µM, partner dose 0.8 µM) | 90.8%
CN1CCN(c2ccc3nc(-c4c(N)c5c(F)cccc5[nH]c4=O)[nH]c3c2)CC1 [Dovitinib] + O=C(O)c1ccc2c(c1)nc(Nc1cccc(Cl)c1)c1ccncc12 [CX4945] (first compound 0.1 µM, partner dose 0.4 µM) | 70.3%
CN1CCN(c2ccc3nc(-c4c(N)c5c(F)cccc5[nH]c4=O)[nH]c3c2)CC1 [Dovitinib] + O=C(Nc1ccccc1)c1cc([N+](=O)[O-])ccc1Cl [GW9662] (first compound 0.1 µM, partner dose 2 µM) | 77.6%
C[C@@H](Oc1cc(-c2cnn(C3CCNCC3)c2)cnc1N)c1c(Cl)ccc(F)c1Cl [Crizotinib] + NCC(=O)Nc1ccc(-n2nc(C(F)(F)F)cc2-c2ccc3c(ccc4ccccc43)c2)cc1 [OSU03012] (first compound 0.2 µM, partner dose 1 µM) | 52.8%
CN1CCN(c2ccc3nc(-c4c(N)c5c(F)cccc5[nH]c4=O)[nH]c3c2)CC1 [Dovitinib] + Cn1nnc2c(C(N)=O)ncn2c1=O [temozolomide] (first compound 0.1 µM, partner dose 2 µM) | 48.6%
CNC(=O)c1cc(Oc2ccc(NC(=O)Nc3ccc(Cl)c(C(F)(F)F)c3)cc2)ccn1 [sorafenib] + O=C(Nc1ccccc1)c1cc([N+](=O)[O-])ccc1Cl [GW9662] (first compound 0.4 µM, partner dose 2 µM) | 122%
CN1CCN(c2ccc3nc(-c4c(N)c5c(F)cccc5[nH]c4=O)[nH]c3c2)CC1 [Dovitinib] + O=C(O)[C@@H]1[O][Sb](=[O])([O][Sb]2(=[O])[O][C@H]([C@H](O)CO)[C@H](O)[C@H](C(=O)O)[O]2)[O][C@H]([C@H](O)CO)[C@@H]1O [stibogluconate] (first compound 0.1 µM, partner dose 2 µM) | 94.7%
CS(=O)(=O)CCNCc1ccc(-c2ccc3ncnc(Nc4ccc(OCc5cccc(F)c5)c(Cl)c4)c3c2)o1 [lapatinib] + CN(C)S(=O)(=O)c1ccc2c(c1)/C(=C/c1cc3c([nH]1)CCCC3)C(=O)N2 [SU6656] (first compound 0.8 µM, partner dose 0.4 µM) | 102%
C=CCNC1=C2C[C@@H](C)C[C@H](OC)[C@H](O)[C@@H](C)/C=C(\C)[C@H](OC(N)=O)[C@@H](OC)/C=C\C=C(/C)C(=O)NC(=CC1=O)C2=O [Tanespimycin] + CCc1ccc(CCOc2ccc(CC3SC(=O)NC3=O)cc2)nc1 [pioglitazone] (first compound 0.002 µM, partner dose 2 µM) | 98.8%
CS(=O)(=O)CCNCc1ccc(-c2ccc3ncnc(Nc4ccc(OCc5cccc(F)c5)c(Cl)c4)c3c2)o1 [lapatinib] + COc1cc2ncnc(Nc3ccc(Oc4ccccc4)cc3)c2cc1OC [SrcI1] (first compound 0.8 µM, partner dose 2 µM) | 105%
CNC(=O)c1cc(Oc2ccc(NC(=O)Nc3ccc(Cl)c(C(F)(F)F)c3)cc2)ccn1 [sorafenib] + COc1cc(N2CCC(N3CCN(C)CC3)CC2)ccc1Nc1ncc(Cl)c(Nc2ccccc2S(=O)(=O)C(C)C)n1 [NVP-TAE684] (first compound 0.4 µM, partner dose 0.08 µM) | 63.9%
CS(=O)(=O)CCNCc1ccc(-c2ccc3ncnc(Nc4ccc(OCc5cccc(F)c5)c(Cl)c4)c3c2)o1 [lapatinib] + NC(=O)Nc1cc(-c2cccc(F)c2)sc1C(=O)N[C@H]1CCCNC1 [AZD7762] (first compound 0.8 µM, partner dose 0.02 µM) | 92.1%
C[C@@H](Oc1cc(-c2cnn(C3CCNCC3)c2)cnc1N)c1c(Cl)ccc(F)c1Cl [Crizotinib] + O=C(Nc1ccccc1)c1cc([N+](=O)[O-])ccc1Cl [GW9662] (first compound 0.2 µM, partner dose 2 µM) | 108%
CNC(=O)c1cc(Oc2ccc(NC(=O)Nc3ccc(Cl)c(C(F)(F)F)c3)cc2)ccn1 [sorafenib] + Cc1cc(N2CCOCC2)cc2[nH]c(-c3c(NC[C@@H](O)c4cccc(Cl)c4)cc[nH]c3=O)nc12 [BMS536924] (first compound 0.4 µM, partner dose 0.2 µM) | 97%
CN1CCN(c2ccc3nc(-c4c(N)c5c(F)cccc5[nH]c4=O)[nH]c3c2)CC1 [Dovitinib] + CC(C)(C)c1cnc(CSc2cnc(NC(=O)C3CCNCC3)s2)o1 [SNS-032] (first compound 0.1 µM, partner dose 0.01 µM) | 85.8%
C=CCNC1=C2C[C@@H](C)C[C@H](OC)[C@H](O)[C@@H](C)/C=C(\C)[C@H](OC(N)=O)[C@@H](OC)/C=C\C=C(/C)C(=O)NC(=CC1=O)C2=O [Tanespimycin] + NCC(=O)Nc1ccc(-n2nc(C(F)(F)F)cc2-c2ccc3c(ccc4ccccc43)c2)cc1 [OSU03012] (first compound 0.002 µM, partner dose 1 µM) | 46.5%
CS(=O)(=O)CCNCc1ccc(-c2ccc3ncnc(Nc4ccc(OCc5cccc(F)c5)c(Cl)c4)c3c2)o1 [lapatinib] + COc1ccc(-c2ccc3c(N4CCOCC4)nc(N4C[C@@H](C)O[C@@H](C)C4)nc3n2)cc1CO [KU0063794] (first compound 0.8 µM, partner dose 0.02 µM) | 106%
C=CCNC1=C2C[C@@H](C)C[C@H](OC)[C@H](O)[C@@H](C)/C=C(\C)[C@H](OC(N)=O)[C@@H](OC)/C=C\C=C(/C)C(=O)NC(=CC1=O)C2=O [Tanespimycin] + COC(=O)c1sccc1S(=O)(=O)Nc1ccc(Nc2ccccc2)cc1OC [GSK0660] (first compound 0.002 µM, partner dose 1 µM) | 113%
C[C@@H](Oc1cc(-c2cnn(C3CCNCC3)c2)cnc1N)c1c(Cl)ccc(F)c1Cl [Crizotinib] + O=C(O)C(=O)Nc1sc2c(c1C(=O)O)CCNC2 [TCS401] (first compound 0.2 µM, partner dose 1.66667 µM) | 84.7%
CS(=O)(=O)CCNCc1ccc(-c2ccc3ncnc(Nc4ccc(OCc5cccc(F)c5)c(Cl)c4)c3c2)o1 [lapatinib] + COc1cc(Nc2ncc(F)c(Nc3ccc4c(n3)NC(=O)C(C)(C)O4)n2)cc(OC)c1OC [Tamatinib] (first compound 0.8 µM, partner dose 0.4 µM) | 89.6%
C[C@@H](Oc1cc(-c2cnn(C3CCNCC3)c2)cnc1N)c1c(Cl)ccc(F)c1Cl [Crizotinib] + CO[C@H]1C[C@@H]2CC[C@@H](C)[C@@](O)(O2)C(=O)C(=O)N2CCCC[C@H]2C(=O)O[C@H]([C@H](C)C[C@@H]2CC[C@@H](OCCO)[C@H](OC)C2)CC(=O)[C@H](C)/C=C(\C)[C@@H](O)[C@@H](OC)C(=O)[C@H](C)C[C@H](C)/C=C/C=C/C=C/1C [everolimus] (first compound 0.2 µM, partner dose 0.02 µM) | 68.3%
CN1CCN(c2ccc3nc(-c4c(N)c5c(F)cccc5[nH]c4=O)[nH]c3c2)CC1 [Dovitinib] + C[C@]1(c2nc3c(C(N)=O)cccc3[nH]2)CCCN1 [Veliparib] (first compound 0.1 µM, partner dose 1.4 µM) | 82.5%
C[C@@H](Oc1cc(-c2cnn(C3CCNCC3)c2)cnc1N)c1c(Cl)ccc(F)c1Cl [Crizotinib] + O=C1NC(=O)/C(=C/c2ccc(-c3ccc(F)cc3O)o2)S1 [AS252424] (first compound 0.2 µM, partner dose 1 µM) | 98.6%
CS(=O)(=O)CCNCc1ccc(-c2ccc3ncnc(Nc4ccc(OCc5cccc(F)c5)c(Cl)c4)c3c2)o1 [lapatinib] + O=C1NC(=O)/C(=C/c2ccc(-c3ccc(F)cc3O)o2)S1 [AS252424] (first compound 0.8 µM, partner dose 1 µM) | 84.4%
CN1CCN(c2ccc3nc(-c4c(N)c5c(F)cccc5[nH]c4=O)[nH]c3c2)CC1 [Dovitinib] + CN(NC(=O)CC(=O)NN(C)C(=S)c1ccccc1)C(=S)c1ccccc1 [STA4783] (first compound 0.1 µM, partner dose 0.006 µM) | 93.2%
C[C@@H](Oc1cc(-c2cnn(C3CCNCC3)c2)cnc1N)c1c(Cl)ccc(F)c1Cl [Crizotinib] + CNC(=O)c1cc(Oc2ccc(NC(=O)Nc3ccc(Cl)c(C(F)(F)F)c3)cc2)ccn1 [sorafenib] (first compound 0.2 µM, partner dose 0.4 µM) | 117%
